This is one part of the list.
Key:
[1] = tested on: HSkMC (human skeletal muscle cells); test: cytotoxicity call (relative viability < 0.9); details: 10 µM
[2] = tested on: HepG2; test: cytotoxicity call (relative viability < 0.9); details: 10 µM
[3] = tested on: S. aureus RN4220; test: growth inhibition call (relative growth <= 0.2); details: 50 µM

| SMILES | cytotoxicity call [1] | cytotoxicity call [2] | growth inhibition call [3] |
| --- | --- | --- | --- |
| CN(C)C(=O)c1ccc(-c2cccc(-c3nc(C(=O)NC4CCCC4)cc4c3[C@@H](CCO)N([S@](=O)C(C)(C)C)C4)c2)cc1 | inactive | inactive | inactive |
| C[C@@H]1CN([C@H](C)CO)S(=O)(=O)c2ccc(C#CC3(O)CCCC3)cc2O[C@@H]1CN(C)C(=O)Nc1ccccc1 | inactive | active | inactive |
| O=C(C[C@@H]1CC[C@@H]2[C@H](COC[C@@H](O)CN2C(=O)Nc2cccc(F)c2)O1)NCc1ccccc1Cl | inactive | inactive | inactive |
| C[C@H]1C/C(=C\N(C)C)C(=O)C1=O | inactive | active | inactive |
| C[C@@H]1CCCCO[C@H](CN(C)Cc2ccc(C(F)(F)F)cc2)[C@H](C)CN([C@@H](C)CO)C(=O)c2cc(NC(=O)Nc3ccc(C(F)(F)F)cc3)ccc2O1 | active | active | inactive |
| C[C@H](CO)N1C[C@H](C)[C@H](CN(C)Cc2ccc(Oc3ccccc3)cc2)Oc2ccc(NC(=O)Nc3ccc(C(F)(F)F)cc3)cc2C1=O | active | active | inactive |
| C[C@H](CO)N1C[C@H](C)[C@@H](CN(C)C(=O)Nc2ccc(F)cc2)Oc2c(NC(=O)Nc3cccc4ccccc34)cccc2C1=O | inactive | inactive | inactive |
| Cc1ccc(S(=O)(=O)Nc2ccc3c(c2)C(=O)N([C@H](C)CO)C[C@@H](C)[C@@H](CN(C)Cc2ccc(Cl)c(Cl)c2)O3)cc1 | active | active | inactive |
| Cc1ccc(S(=O)(=O)Nc2ccc3c(c2)CC(=O)N([C@H](C)CO)C[C@H](C)[C@@H](CN(C)S(=O)(=O)c2ccccc2)O3)cc1 | inactive | inactive | inactive |
| C[C@@H]1CCCCO[C@@H](CN(C)C(=O)Cc2ccccc2)[C@H](C)CN([C@H](C)CO)C(=O)c2cc(NS(=O)(=O)c3ccc(F)cc3)ccc2O1 | inactive | inactive | inactive |
| CN(C)Cc1cn(CC[C@H]2CC[C@H](NS(=O)(=O)c3ccccc3)[C@@H](CO)O2)nn1 | inactive | inactive | inactive |
| C[C@@H]1CCCCO[C@@H](CN(C)S(=O)(=O)c2ccc(Cl)cc2)[C@@H](C)CN([C@@H](C)CO)C(=O)c2cc(NC(=O)c3ccncc3)ccc2O1 | inactive | inactive | inactive |
| CC(C)(C)c1cc(CCC(=O)OCC(COC(=O)CCc2cc(C(C)(C)C)c(O)c(C(C)(C)C)c2)(COC(=O)CCc2cc(C(C)(C)C)c(O)c(C(C)(C)C)c2)COC(=O)CCc2cc(C(C)(C)C)c(O)c(C(C)(C)C)c2)cc(C(C)(C)C)c1O | inactive | inactive | inactive |
| C[C@@H]1CN([C@H](C)CO)S(=O)(=O)c2ccc(-c3cncnc3)cc2O[C@H]1CN(C)C(=O)c1cccc(F)c1 | inactive | inactive | inactive |
| Cc1noc(C)c1NC(=O)Nc1ccc2c(c1)C(=O)N([C@H](C)CO)C[C@H](C)[C@H](CN(C)S(=O)(=O)c1ccc(Cl)cc1)OCCCC[C@H](C)O2 | inactive | inactive | inactive |
| COc1c(O)cc(O)cc1O | inactive | inactive | inactive |
| C[C@H]1CN([C@@H](C)CO)C(=O)c2cc(NS(C)(=O)=O)ccc2O[C@@H]1CN(C)C(=O)Nc1ccccc1 | inactive | inactive | inactive |
| C[C@@H]1CCCCO[C@@H](CN(C)C(=O)c2ccccc2)[C@@H](C)CN([C@@H](C)CO)C(=O)c2cc(NC(=O)NC3CCCCC3)ccc2O1 | inactive | inactive | inactive |
| COCC(=O)N1C[C@@H](C)[C@H](OC)CN(C)C(=O)c2cc(NC(=O)c3cc(C)on3)ccc2OC[C@@H]1C | inactive | inactive | inactive |
| C[C@@H]1CCCCO[C@@H](CN(C)C(=O)C2CCCCC2)[C@H](C)CN([C@@H](C)CO)C(=O)c2cc(NS(=O)(=O)c3cccs3)ccc2O1 | inactive | inactive | inactive |
| COc1cccc(S(=O)(=O)Nc2ccc3c(c2)[C@H]2C[C@H](CC(=O)NCC(F)(F)F)O[C@H](CO)[C@H]2O3)c1 | inactive | inactive | inactive |
| CCS(=O)(=O)Nc1ccc2c(c1)C(=O)N(C)[C@H]1CC[C@H](CC(=O)NCCCN3CCOCC3)O[C@@H]1CO2 | inactive | inactive | inactive |
| CNC(=O)[C@H]1O[C@@H](n2cnc3c(NCc4cccc(I)c4)nc(Cl)nc32)[C@H](O)[C@@H]1O | inactive | inactive | inactive |
| Cc1noc(C)c1S(=O)(=O)N(C)C[C@@H]1Oc2ccc(NS(C)(=O)=O)cc2CC(=O)N([C@@H](C)CO)C[C@H]1C | inactive | inactive | inactive |
| C[C@H](CO)N1C[C@H](C)[C@@H](CN(C)S(=O)(=O)c2ccccc2)OCCCC[C@H](C)Oc2ccc(NC(=O)Nc3ccc(F)cc3)cc2C1=O | inactive | inactive | inactive |

| SMILES | cytotoxicity call [1] | cytotoxicity call [2] | growth inhibition call [3] |
| --- | --- | --- | --- |
| Cc1noc(C)c1S(=O)(=O)Nc1ccc2c(c1)C(=O)N([C@H](C)CO)C[C@@H](C)[C@@H](CN(C)Cc1ccc(-c3ccccc3)cc1)O2 | inactive | inactive | inactive |
| C[C@H]1CN([C@@H](C)CO)C(=O)CCCn2nncc2CO[C@H]1CN(C)S(=O)(=O)c1ccc(-n2cccn2)cc1 | inactive | inactive | inactive |
| C[C@@H]1CCCCO[C@H](CN(C)Cc2ccc(Cl)c(Cl)c2)[C@@H](C)CN([C@H](C)CO)C(=O)c2cc(NC(=O)CCCCCC(=O)Nc3ccccc3N)ccc2O1 | inactive | inactive | inactive |
| c1cnc2c(SCc3nc4ccccc4s3)cccc2c1 | active | active | inactive |
| CC(N)(Cc1ccc2c(c1)OCO2)C(=O)O (stereo not given) | inactive | inactive | inactive |
| CCCCCC/C=C/C=C\CCCCCCCC(=O)O | inactive | inactive | inactive |
| CC(C)C[C@H](NC(=O)[C@@H](Cc1c[nH]c2ccccc12)NC(=O)[C@H](Cc1ccc(O)cc1)NC(=O)[C@H](CO)NC(=O)[C@H](Cc1c[nH]c2ccccc12)NC(=O)[C@H](Cc1cnc[nH]1)NC(=O)[C@@H]1CCC(=O)N1)C(=O)N[C@@H](CCCNC(=N)N)C(=O)N1CCC[C@H]1C(=O)NCC(N)=O | inactive | inactive | inactive |
| CC(=O)O[C@H]1C[C@@]2(C)[C@@H](C[C@@H](O)[C@@H]3[C@@]4(C)CC[C@@H](O)[C@@H](C)[C@@H]4CC[C@@]32C)/C1=C(/CCC=C(C)C)C(=O)O | inactive | inactive | active |
| COc1ccccc1S(=O)(=O)N(C)C[C@@H]1Oc2cc(C#CCC(C)C)ccc2S(=O)(=O)N([C@H](C)CO)C[C@@H]1C | inactive | active | inactive |
| Cc1ccc(S(=O)(=O)Nc2ccc3c(c2)C(=O)N([C@@H](C)CO)C[C@@H](C)[C@@H](CN(C)Cc2ccc(C(=O)O)cc2)OCCCC[C@@H](C)O3)cc1 | inactive | inactive | inactive |
| COCC(=O)N(C)C[C@@H]1Oc2cc(-c3ccc(OC)cc3)ccc2S(=O)(=O)N([C@H](C)CO)C[C@@H]1C | inactive | inactive | inactive |
| COc1ccccc1C#Cc1ccc2c(c1)O[C@@H](CN(C)Cc1cncnc1)[C@@H](C)CN([C@@H](C)CO)S2(=O)=O | inactive | inactive | inactive |
| COC(=O)C1=C2CC[C@H](COC(=O)NCCCCCC(=O)NO)NC(=O)N[C@H](Cc3ccccc3)c3cn(nn3)C[C@@H](Cc3ccccc3)NC(=O)c3oc(c(C(=O)OC)c3C(=O)OC)CC[C@H](COC(=O)NCCCCCC(=O)NO)NC(=O)N[C@H](Cc3ccccc3)c3cn(nn3)C[C@@H](Cc3ccccc3)NC(=O)C(=C1C(=O)OC)O2 | inactive | inactive | inactive |
| C[C@H](CO)N1C[C@H](C)[C@H](CN(C)C(=O)Nc2ccc(F)cc2)Oc2ncc(C#CCN(C)C)cc2C1=O | inactive | inactive | inactive |
| C[C@@H]1CCCCO[C@H](CN(C)CC2CCCCC2)[C@H](C)CN([C@@H](C)CO)C(=O)c2cc(NC(=O)Nc3ccc(C(F)(F)F)cc3)ccc2O1 | active | active | inactive |
| COc1ccc(NC(=O)N(C)C[C@H]2OCc3ccccc3-c3c(n(C)c4ccccc34)C(=O)N([C@H](C)CO)C[C@H]2C)c(OC)c1 | inactive | inactive | inactive |
| COc1ccc(NC(=O)Nc2ccc3c(c2)C(=O)N([C@H](C)CO)C[C@@H](C)[C@@H](CN(C)Cc2ccc(C(=O)O)cc2)OCCCC[C@H](C)O3)cc1 | inactive | inactive | inactive |
| Cc1noc(C)c1NC(=O)Nc1ccc2c(c1)C(=O)N([C@@H](C)CO)C[C@H](C)[C@@H](CN(C)Cc1ccncc1)OCCCC[C@@H](C)O2 | inactive | inactive | inactive |
| C[C@@H]1CCCCO[C@@H](CN(C)Cc2ccc3c(c2)OCO3)[C@H](C)CN([C@H](C)CO)C(=O)c2cc(NC(=O)NC3CCCCC3)ccc2O1 | inactive | inactive | inactive |
| CC(C)NC(=O)Nc1ccc2c(c1)C(=O)N([C@@H](C)CO)C[C@@H](C)[C@H](CN(C)S(=O)(=O)c1ccc(Cl)cc1)O2 | inactive | inactive | inactive |
| C[C@H]1CCCCO[C@@H](CN(C)Cc2ccc(C(F)(F)F)cc2)[C@@H](C)CN([C@@H](C)CO)C(=O)c2cc(NC(=O)c3ccccc3)ccc2O1 | active | active | inactive |
| C[C@H]1CCCCO[C@H](CN(C)C(=O)Nc2cccc3ccccc23)[C@@H](C)CN([C@@H](C)CO)C(=O)c2cc(NC(=O)CCCN(C)C)ccc2O1 | inactive | inactive | inactive |
| COc1ccc2c3c([nH]c2c1)[C@@H](CO)N(C[C@]13CCN(CC1)Cc1ccc(cc1)F)C(=O)Nc1ccc(cc1)F | active | active | active |
| CCCNC(=O)N(C)C[C@H]1Oc2cc(-c3ccc(C)cc3)ccc2S(=O)(=O)N([C@@H](C)CO)C[C@H]1C | inactive | inactive | inactive |
| C[C@H]1CN([C@@H](C)CO)C(=O)Cc2cc(NC(=O)Nc3cccc4ccccc34)ccc2O[C@@H]1CN(C)Cc1ccc(-c2ccccc2)cc1 | active | inactive | inactive |

From the antibiotic and cytotoxicity screens of Wong et al. (2023)
